Assay results published in the supplement of paper PMC4466236.
Over roughly 33,000 sequences, “E-score (dimensionless, -0.5 to 0.5)” has its median near -0.058; the highest 2% begin near 0.35. The list shows a part of the results.

Each sequence was assayed on MvaT (assay: PBM 8-mer E-score (mean of HK and ME arrays) (E-score (dimensionless, -0.5 to 0.5)); higher = stronger relative binding preference; most listed sequences are background and not binding sites).
Summary of the method: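 Reported values are rank-based E-scores, taken as the mean of two universal arrays and parsed with a custom script. Each 8-mer score falls between -0.5 and 0.5. The arrays, ME and HK, were double-stranded 60-mers with a constant 25-mer primer region and a variable 35-mer region covering all 8-mers. They were probed, by an earlier protocol, with full-length P. aeruginosa MvaT carrying an N-terminal glutathione S-transferase fusion.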

| Sequence | PBM 8-mer E-score |
| --- | --- |
| ATAAAGCG | 0.182 |
| AGTTCGCG | 0.0814 |
| GGGCCGAA | -0.247 |
| AAACTTGT | 0.206 |
| CGATCTCA | -0.227 |
| ATCCGCAT | -0.0959 |
| CTAGAACC | -0.193 |
| AACGCCCG | -0.0548 |
| CATGAAGC | -0.125 |
| ACGTTCTG | -0.0125 |
| ACATTGCA | -0.0605 |
| CCCCGAGG | -0.277 |
| CGGTTAGA | -0.0621 |
| GCTCGAAC | -0.198 |
| AGTCAAGG | -0.0826 |
| ACACTTAC | 0.205 |
| TATGTTGA | 0.212 |
| CCAGGACA | -0.112 |
| GACGTCCA | -0.247 |
| GATGGTCC | -0.117 |
| ACGCAATA | 0.27 |
| GGCTCCAC | -0.329 |
| GCGAGGAA | -0.000183 |
| TCACGCGA | -0.0922 |
| AACGGGAG | -0.215 |

| Sequence | PBM 8-mer E-score |
| --- | --- |
| GCACGCAC | -0.179 |
| ACACATAA | 0.273 |
| CCCCTTAA | 0.0542 |
| TCTCGGCA | 0.0682 |
| ACACGTAG | -0.0126 |
| CCTCGAGA | -0.0968 |
| ACCTCACT | -0.189 |
| GCGGGACC | -0.163 |
| GAGCTTTA | -0.147 |
| TAGACGGA | -0.214 |
| AAGCTGCT | -0.156 |
| CGTAGCAA | -0.103 |
| GAGGCTTA | -0.208 |
| CGCAGTCC | -0.172 |
| CTTCCAAC | -0.0953 |
| GTGGCTTA | -0.105 |
| CGGTAGGC | -0.203 |
| TTTTAAAA | 0.409 |
| AGGGGAGA | -0.145 |
| AGTGTACA | 0.19 |
| GCATGAAC | -0.198 |
| GCGGAATA | 0.205 |
| CGGCGTTC | -0.211 |
| CCTGGTAA | -0.0325 |
| CCTAGTAG | 0.0151 |

| Sequence | PBM 8-mer E-score |
| --- | --- |
| ATTGATAA | 0.322 |
| CCCGACGA | -0.167 |
| CACCATGC | -0.17 |
| GAGTTTTA | 0.181 |
| AGCACAAA | 0.0677 |
| CAAGACGG | -0.127 |
| ACCGAATA | 0.227 |
| GTCCCGGA | -0.272 |
| ACCATCGT | -0.0813 |
| CAGATGGG | -0.216 |
| CAGTACCC | -0.0965 |
| ACCCACTG | -0.0978 |
| ACCTAAAA | 0.0584 |
| GGCGTTCA | -0.149 |
| ACTCTTAT | 0.208 |
| GCGGTAGA | -0.049 |
| TATACAGA | 0.296 |
| CGCATACA | 0.179 |
| GACCGTTA | 0.12 |
| TCAGGACA | -0.158 |
| CGCGTCTC | -0.196 |
| CATCGCAC | 0.0662 |
| CCCCCCTC | -0.342 |
| TATAGTAA | 0.342 |
| TAGTACGA | 0.188 |

| Sequence | PBM 8-mer E-score |
| --- | --- |
| ACCAATTA | 0.25 |
| GACAACAC | 0.0942 |
| CGAGTCGC | -0.2 |
| AAGCGCAT | 0.0214 |
| ACGGAGGC | -0.252 |
| GGAGTTGA | -0.0727 |
| GATCACGC | -0.153 |
| TCCCGCAA | 0.0151 |
| CGTGACGA | -0.32 |
| ACACTACA | 0.119 |
| ACTCTCCG | -0.142 |
| TATTACCA | 0.263 |
| CTCCTAGC | -0.143 |
| ACGAATAG | -0.029 |
| CCAGTAGG | -0.202 |
| AGTGCTGC | -0.195 |
| CAGTTATC | 0.131 |
| AAAATCTA | 0.0355 |
| AAACTCTA | 0.135 |
| CAGGTTAA | 0.0719 |
| CTATGAGA | -0.0448 |
| ACGAGAGA | -0.0673 |
| ATGATGGC | -0.151 |
| AGCTACAA | -0.035 |
| GATGCTAC | -0.201 |

| Sequence | PBM 8-mer E-score |
| --- | --- |
| CCCGTGCC | -0.187 |
| AGCGGCCA | -0.134 |
| CGATCCCC | -0.314 |
| AAAATAGA | 0.173 |
| ATTCAGTC | 0.0824 |
| AAATCACA | 0.131 |
| TCTCTGAA | -0.0253 |
| GCTCTACC | -0.19 |
| AAAAAGAA | 0.317 |
| AGTATCCC | -0.128 |
| AACATTGT | 0.172 |
| AATGAAAT | 0.23 |
| AACTCGGT | -0.0107 |
| ACATGATG | 0.0401 |
| AATTACGG | 0.301 |
| ATAGAATC | 0.0155 |
| GTTTTTAA | 0.23 |
| ACCCCTCG | -0.181 |
| GCTCCACC | -0.234 |
| AGCTCAAC | -0.0559 |
| AGTGACTG | -0.0444 |
| ACCGTCGG | -0.206 |
| ATCGCCGG | -0.169 |
| AACCCATA | 0.0666 |
| ACCATGTG | -0.192 |

| Sequence | PBM 8-mer E-score |
| --- | --- |
| TCCCATCA | -0.0548 |
| AAAGCGTC | -0.00535 |
| ATAATTAG | 0.429 |
| GGCATGTA | 0.0178 |
| TATGGTAA | 0.222 |
| GCGTGGAA | -0.139 |
| GTACAAAC | 0.175 |
| CATAACCA | 0.0892 |
| ATTAGTGA | 0.225 |
| GTGAGTCA | -0.199 |
| AACGAGTC | -0.0958 |
| AGCATTGG | -0.268 |
| AGCCTCGC | -0.215 |
| GTAAGAAA | 0.2 |
| CATCCACC | -0.167 |
| CCAGACCG | -0.161 |
| AAAGTACT | 0.25 |
| CCCACAGC | -0.26 |
| AGCCCGGC | -0.312 |
| AGGAGAGA | -0.105 |
| CAAAAGTG | 0.0592 |
| CGCTGTCC | -0.207 |
| GAGACTCC | -0.164 |
| AAAGAGTG | 0.00642 |
| CACTGCGC | -0.173 |

| Sequence | PBM 8-mer E-score |
| --- | --- |
| AGTAAAAG | 0.22 |
| GTCCACTA | 0.0598 |
| CGAAAGTC | -0.0957 |
| GTCAAGTA | 0.0656 |
| AGTCGGTA | -0.0292 |
| ATTGCGAA | 0.148 |
| AACCCAGG | 0.00834 |
| GGTGGTAA | -0.0265 |
| TGGAAGAA | -0.0513 |
| ATCATGCC | -0.105 |
| ACTCTACC | 0.0756 |
| ACAGCTAA | 0.053 |
| ATTAGGTG | 0.227 |
| GAACAAGC | -0.0473 |
| ATCATTAG | 0.00779 |
| GAAAAGCC | -0.0242 |
| ATCATACA | 0.183 |
| ACCTGGTA | -0.102 |
| GCGGCCCC | -0.285 |
| TGTTTAAA | 0.387 |
| TATGGGCA | 0.0621 |
| CGCGTGTC | -0.108 |
